Experimental data reported in the supplement of paper PMC10338343.
± gives the standard deviation. In all, about 5,500 sequences were measured (“pre-steady-state target cleavage rate”: median about 0.1, highest 2% from about 0.64 on). Only a part is listed here, and it is no random draw.

Tested on: MIWI (PIWIL1) piRISC loaded with piRNA #2 (30 nt)
Assay: pre-steady-state target cleavage rate (min^-1); MIWI and MILI are mouse PIWI proteins and EfPiwi is from a freshwater sponge; tags in brackets are library labels; higher = faster piRNA-guided slicing of the target
Conditions: guide: piRNA #2 5'p-UUAGGUAACCCAGUAGAUCCAGAGGAAUUC; auxiliary factor: 500 nM mouse GTSF1
Method in brief: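 The pre-steady-state cleavage rate was obtained by Cleave-'n-Seq with a burst-and-steady-state fit. A transcribed, DNA-blocked target RNA library (0.1 nM) was mixed with 1 nM active affinity-purified piRISC carrying one synthetic guide, with or without 500 nM GTSF1 partner protein, in HEPES–potassium acetate buffer at 33 °C for 0–8 or 0–960 min. Uncleaved targets were sequenced and normalised to depth and to weakly complementary targets, with three trials pooled and k3 capped at 0.0001 min^-1.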

Going from CUUUUCUUCUGGAUCUACUGGGUUACCUAA to CUUAACCUCUGGAUGAUCUGGGUUACCUAA, the “pre-steady-state target cleavage rate” value falls from 0.428 ± 0.038 to 0.0136 ± 0.003.

Compared with CUUUUCCUCUCGAUCUACUCGGUUACCUAA, CUUAACCUCUGGAUCUACUGCGUUACCUUA is higher in “pre-steady-state target cleavage rate” value: 0.185 ± 0.013 for the first, 0.231 ± 0.027 for the second.

Going from CUUAACCUCUCGAUCUACUGGGUUACCUUA to CUUAUCCUCUGGAUGUACUGGGUAACCUAA, the “pre-steady-state target cleavage rate” value falls from 0.373 ± 0.034 to 0.131 ± 0.04.

Going from CAAUUCCUCUGGAUCUACUCGGUUACGUAA to CUUAAGGAGUGGAUCUACUGGGUUACCGUAA, the “pre-steady-state target cleavage rate” value falls from 0.127 ± 0.061 to 0.0283 ± 0.01.

Compared with CUUAACCACUGGAUCAACUGGGUUACCUAA, CUAUUCCUCUCGAUCUACUGGGAUACCUAA is higher in “pre-steady-state target cleavage rate” value: 0.232 ± 0.019 for the first, 0.523 ± 0.032 for the second.

Going from CUUAAGGACUGGAUCUAGUGGGUUACCUUA to CUUAACCUCUGGAUCAACUGGGUAACCUAA, the “pre-steady-state target cleavage rate” value rises from 0.0229 ± 0.011 to 0.0539 ± 0.0079.

Going from CUUAUCCUCUCGAACUACUGGGUUACCUAA to CUUAACCUCUGGAUCUACUGGGUUACCUCA, the “pre-steady-state target cleavage rate” value falls from 0.365 ± 0.03 to 0.122 ± 0.016.

GAAUUCCUCUGGAUCUUCUCGGUUACCUAA and CUUAAGGAGUGGAUCUACUGGGUUGACCUAA are within error of each other in “pre-steady-state target cleavage rate” value: 0.0738 ± 0.018 for the first, 0.09 ± 0.028 for the second.

CAAUUCCACUGGAUCUACUGGGUUACCAAA and CUUAACCUCCGGAUCUACUGGGUUACCUAA are within error of each other in “pre-steady-state target cleavage rate” value: 0.456 ± 0.083 for the first, 0.4 ± 0.059 for the second.

CUAUUCCUCUGGUUCUACUGGGAUACCUAA and CUUAAGGACUGGAUCUAGUGGGUUACCUAA are within error of each other in “pre-steady-state target cleavage rate” value: 0.125 ± 0.036 for the first, 0.0778 ± 0.026 for the second.

First: CUUAACCUCUGGAUCUACUGGGAUACCAAA
Second: GAAUUCCUCUGGUUCAACUGGGUUACCUAA
The “pre-steady-state target cleavage rate” value of the first is lower: 0.0873 ± 0.019 for the first, 0.524 ± 0.042 for the second.

Going from GAAUUCCGUCUGGAUCUACUGGGUUACCUAA to CUUAAGGAGAGGUUCUACUGGGUUACCUUA, the “pre-steady-state target cleavage rate” value falls from 0.483 ± 0.044 to 0.00328 ± 0.0022.

Compared with CUAUUCCUCUGGUUCUACUGGGUUACCUAA, CUUUUCCUCUGGAUGUACUCGGUUACCUAA is lower in “pre-steady-state target cleavage rate” value: 0.711 ± 0.043 for the first, 0.0968 ± 0.023 for the second.

Going from GAAUUCCACUGGAUCUACUGGGUUACGUAA to CUUAACCUCUGGAUGUAGUGGGUUACCUAA, the “pre-steady-state target cleavage rate” value falls from 0.803 ± 0.043 to 0.0937 ± 0.011.

Going from CUUAACCUCUGGAUGUACUGGGUUUCCUAA to CUUAACCUCAGGAUCUACUGGGUUACGUAA, the “pre-steady-state target cleavage rate” value rises from 0.069 ± 0.015 to 0.289 ± 0.038.

CUUAAGCUCUGGAUCAACUGGGUUACCUAA and CAAUUCCUCUGGAUCUACUCGGUUACCUAA are within error of each other in “pre-steady-state target cleavage rate” value: 0.0889 ± 0.013 for the first, 0.103 ± 0.022 for the second.

Going from CUUUUCCUCUGGAUCUACUGGGUUACGCUAA to GAAUUCCUCUGGAUCUACUGGGUUCCCUAA, the “pre-steady-state target cleavage rate” value falls from 0.601 ± 0.049 to 0.195 ± 0.039.

First: CAUUUCCUCUCGAUCUACUGGGUUACCUAA
Second: CUUAAGGAGACCUACUACUGGCGUUACCUAA
The “pre-steady-state target cleavage rate” value of the first is higher: 0.808 ± 0.052 for the first, 0.00806 ± 0.0036 for the second.

Compared with CAAUUCCUCUGGAUCUACUGGGUGACCUAA, CUUUUCCUCUCGAUCAACUGGGUUACCUAA is higher in “pre-steady-state target cleavage rate” value: 0.319 ± 0.044 for the first, 0.553 ± 0.039 for the second.

Going from CUUAAGCUCUGGAUGCUACUGGGUUACCUAA to CUUAAGCACUGGAUCUACUGGGUUACCUAA, the “pre-steady-state target cleavage rate” value rises from 0.09 ± 0.015 to 0.293 ± 0.033.

Compared with CUUUUGCUCUGGAUCUACUGGGUAACCUAA, GAAUUCCUCUGGAUCUACUGGGUUUCCUAA is higher in “pre-steady-state target cleavage rate” value: 0.093 ± 0.016 for the first, 0.27 ± 0.047 for the second.

Compared with CUUAAGCUCUGGUUCUACUCGGUUACCUAA, CUUAACCUCUCGGAUCUACUGGGUUACCUAA is higher in “pre-steady-state target cleavage rate” value: 0.0643 ± 0.0085 for the first, 0.225 ± 0.025 for the second.

Compared with CUAUUCCUCUGGUUCAACUGGGUUACCUAA, CUAUUCCUCUGGAUCUACUGGCUUACCUUA is lower in “pre-steady-state target cleavage rate” value: 0.485 ± 0.035 for the first, 0.0561 ± 0.016 for the second.

Compared with CUUAAGGUCUGGAUCAUCUGGGUUACCUAA, CUAUUCCACUGGAUCUACUGGGUUUCCUAA is higher in “pre-steady-state target cleavage rate” value: 0.0609 ± 0.018 for the first, 0.448 ± 0.066 for the second.

Going from CUUAAGGAGAGGAUCUACUGAGUUACCUAA to CAAAUCCUCUGGAUCUACUGGGUUACCUUA, the “pre-steady-state target cleavage rate” value rises from 0.0392 ± 0.0091 to 0.394 ± 0.057.

CUAUUCCUCUGGUCUACUGGGUUACCUAA and CUUAACCCUGGAUCUACUGGGUUACCUAA are within error of each other in “pre-steady-state target cleavage rate” value: 0.341 ± 0.084 for the first, 0.326 ± 0.033 for the second.

Going from CUUAUCCUCUGGAUCUACUGGGUUACCUA to CUUAAGGACUGGAUCUACUAGGUUACCUAA, the “pre-steady-state target cleavage rate” value falls from 0.455 ± 0.069 to 0.0835 ± 0.039.

Going from CUUAAGCUCAGGAUCUACUGGGUAACCUAA to CUUUUCCUCUGGAUCUACUGGGUUACCUAAA, the “pre-steady-state target cleavage rate” value rises from 0.0991 ± 0.022 to 0.34 ± 0.043.

First: CUUAAGGAGACCAUCUACUGGCGUUACCUAA
Second: CUUUUGCUCUGGUUCUACUGGGUUACCUAA
The “pre-steady-state target cleavage rate” value of the first is lower: 0.0115 ± 0.0026 for the first, 0.391 ± 0.031 for the second.

CUUUUCCUCUGGAUCUACUGGGUAAGCUAA and CAAUUCCUCUGGAUCAACUCGGUUACCUAA are within error of each other in “pre-steady-state target cleavage rate” value: 0.0752 ± 0.018 for the first, 0.0921 ± 0.02 for the second.

Compared with CUUAAGCUCUGGAUCUACUGGCUUACCUAA, “GAAUUCCUCUGGAUCUACUCCCAAUGGAUA [g12:g30:cont:t1A]” is lower in “pre-steady-state target cleavage rate” value: 0.0576 ± 0.012 for the first, under 0.0001 for the second.

Going from CUUUUCCUCUAGAUCUACUGGGUUACCUAA to CUUUUCCUCUGGAUCACUGGGUUACCUAA, the “pre-steady-state target cleavage rate” value falls from 0.597 ± 0.035 to 0.0366 ± 0.011.

Compared with CUUAAGGAGUGGAUCUACUGGGUUACCUCAA, “CUUAACCUCUGGAUCUACUGGGUUUGGAUA [g7:g25:cont:t1A]” is lower in “pre-steady-state target cleavage rate” value: 0.0757 ± 0.025 for the first, 0.00825 ± 0.0039 for the second.

Going from CUUUUCCUCUGCAUCUACUGGGUUACCUUA to CUUAAGGUCUGCAUCUACUGGGUUAGCUAA, the “pre-steady-state target cleavage rate” value falls from 0.316 ± 0.05 to 0.117 ± 0.026.

First: CAAUUCCUCUGGAUCUACUGGCGUUACCUAA
Second: CUUAAGGACUGGAUCUACUGCGUUACCUUA
The “pre-steady-state target cleavage rate” value of the first is lower: 0.00552 ± 0.0033 for the first, 0.0962 ± 0.053 for the second.

First: CAAUUGCUCUGGAUCUACUGGGUAACCUAA
Second: CUUUUCCUCUGGGAUCUACUGGGUUACCUAA
The “pre-steady-state target cleavage rate” value of the first is lower: 0.156 ± 0.035 for the first, 0.455 ± 0.037 for the second.
